According to patent US12366572B2, “Activation of bioluminescence by structural complementation” (Promega Corporation, priority 2013, dated 2025):

Target: NLpep53 (Oplophorus gracilirostris, UniProt Q9GV45)
Assay: Luminescence of additional NLpoly variants (5A2 background) after complementation with NLpep53 (Example 31)
Settings: E. coli lysate, NanoGlo reagent, 5 and 30 minutes

B1: Glu-11 (protein)
chain: MVFTLEDFVGDWEQTAAYNLDQVLEQGGVSSLFQNLAVSVTPIQRIVLSGENALKIDIHVIIPYEGLSADQMAQIEKIFKVVYPVDDHHFKVILHYGTLVIDGVTPNMIDYFGRPYEGIAVFDGKKITVTGTLWNGNKIIDERLINPDGSLLFRVTINV
  Luminescence after complementation with NLpep-53 compared with parental 5A2: significantly more luminescence than parental 5A2
